Assay results as given in the GPR68 mutational scans of Howard et al. (2025).

B1: GPR68, Q15743 (parent)
chain: MGNITADNSSMSCTIDHTIHQTLAPVVYVTVLVVGFPANCLSLYFGYLQIKARNELGVYLCNLTVADLFYICSLPFWLQYVLQHDNWSHGDLSCQVCGILLYENIYISVGFLCCISVDRYLAVAHPFRFHQFRTLKAAVGVSVVIWAKELLTSIYFLMHEEVIEDENQHRVCFEHYPIQAWQRAINYYRFLVGFLFPICLLLASYQGILRAVRRSHGTQKSRKDQIQRLVLSTVVIFLACFLPYHVLLLVRSVWEASCDFAKGVFNAYHFSLLLTSFNCVADPVLYCFVSETTHRDLARLRGACLAFLTCSRTGRAREAYPLGAPEASGKSGAQGEEPELLTKLHPAFQTPNSPGSGGFPTGRLA

How the values were obtained:
[1] = variants of: B1; assay: cAMP reporter score (Enrich2 score, wild type = 0); higher = more signal; HEK293T, FACS bins
[2] = variants of: B1; assay: surface expression score (Enrich2 score, wild type = 0); higher = more signal; HEK293T, FACS bins

Row | Variant | cAMP reporter score ([1]; pH 5.5) | cAMP reporter score ([1]; pH 6) | cAMP reporter score ([1]; pH 6, modulator: ogerin) | cAMP reporter score ([1]; pH 6.5, modulator: ogerin) | surface expression score [2]
1 | G2_N3insGS | 0.026 | -0.206 | -0.086 | 0.339 | -0.294
2 | G2del | -0.473 | -0.867 | -0.762 | -0.88 | -1.24
3 | N3A | 0.126 | -0.553 | 0.239 | -0.943 | -0.219
4 | N3C | -0.634 | -1.34 | -0.899 | -0.46 | -1.56
5 | N3D | -0.08 | -0.974 | -0.559 | -0.473 | -0.707
6 | N3E | 0.406 | -0.911 | 0.21 | 0.345 | 0.052
7 | N3F | 0.946 | -0.046 | 0.292 | 0.666 | –
8 | N3G | 0.591 | 0.417 | 0.514 | -0.095 | -0.286
9 | N3H | 0.307 | -0.434 | 0.669 | -0.759 | -0.739
10 | N3I | -0.717 | -1.42 | -0.951 | -1.29 | -0.548
11 | N3K | -0.451 | – | -0.488 | -0.448 | -1.02
12 | N3L | -0.352 | -1.62 | -0.464 | -0.332 | -1.2
13 | N3M | 0.011 | -0.745 | -0.173 | -0.431 | -0.966
14 | N3P | -0.781 | 0.112 | -0.378 | -0.843 | -0.339
15 | N3Q | -0.247 | -0.466 | -0.175 | -0.718 | -0.82
16 | N3R | -0.004 | -0.631 | -0.084 | -0.936 | -0.987
17 | N3S | -1.3 | – | -1.17 | -1.17 | -0.922
18 | N3T | -0.623 | – | -1.02 | 0.522 | -1.3
19 | N3V | 0.413 | – | 0.124 | -0.725 | -0.238
20 | N3W | 0.201 | -0.948 | -0.449 | -0.917 | -0.677
21 | N3Y | 0.065 | -1.01 | 0.241 | -0.512 | -0.728

Row | Variant | cAMP reporter score ([1]; pH 5.5) | cAMP reporter score ([1]; pH 6) | cAMP reporter score ([1]; pH 6, modulator: ogerin) | cAMP reporter score ([1]; pH 6.5, modulator: ogerin) | surface expression score [2]
22 | N3_I4insG | -0.315 | 0.07 | -0.628 | -0.36 | -1.08
23 | N3_I4insGS | -1.26 | -0.045 | -1.37 | -0.18 | -1.46
24 | I4A | -0.598 | 0.311 | -0.903 | -1.08 | -0.164
25 | I4C | -0.111 | -0.509 | 0.101 | -0.963 | -0.253
26 | I4D | 1.17 | 1.82 | 0.755 | 0.733 | 1.47
27 | I4E | 0.231 | 0.487 | 0.169 | 0.804 | 0.232
28 | I4F | -0.251 | -0.403 | -0.182 | 0.127 | 0.011
29 | I4G | 0.672 | 0.483 | 0.739 | 0.448 | 0.803
30 | I4H | 0.164 | 0.549 | 0.279 | -0.059 | -0.467
31 | I4K | 0.539 | 0.271 | 0.129 | 0.014 | 0.512
32 | I4L | 0.304 | 0.291 | 0.49 | 0.788 | 0.772
33 | I4M | 1.22 | 1.32 | 0.421 | 1 | -0.555
34 | I4N | 0.976 | 0.667 | 1.07 | 0.764 | 0.608
35 | I4P | -0.619 | -0.377 | -0.584 | -0.993 | 0.209
36 | I4Q | 0.27 | -0.532 | -0.061 | 0.757 | 0.379
37 | I4R | 0.448 | -1.08 | 0.594 | – | 0.397
38 | I4S | 0.877 | 0.942 | 1.55 | 1.35 | 1.07
39 | I4T | -0.208 | -0.066 | 0.027 | 0.133 | -0.157
40 | I4V | -0.326 | 0.349 | -0.147 | 0.105 | 0.465
41 | I4W | -1.07 | -0.263 | -1.06 | -0.547 | -1.01
42 | I4Y | 0.478 | 0.294 | 0.589 | -0.178 | 0.471

Row | Variant | cAMP reporter score ([1]; pH 5.5) | cAMP reporter score ([1]; pH 6) | cAMP reporter score ([1]; pH 6, modulator: ogerin) | cAMP reporter score ([1]; pH 6.5, modulator: ogerin) | surface expression score [2]
43 | I4_T5insG | 0.626 | – | -0.251 | 0.262 | -0.402
44 | I4_T5insGSG | -0.92 | 0.078 | -0.679 | -0.783 | -0.527
45 | I4del | -1.03 | -0.738 | -0.771 | -0.111 | -2.12
46 | T5_A6insG | -0.184 | – | 0.078 | 0.657 | 0.286
47 | A6_D7del | 1.33 | 1.1 | 1.18 | 1.54 | 0.986
48 | A6_D7insG | 0.796 | 0.827 | 0.801 | 0.836 | 0.461
49 | A6_D7insGS | -0.167 | -0.798 | 0.033 | -0.218 | -0.118
50 | A6del | 0.056 | 0.238 | 0.432 | -0.057 | -0.458
51 | D7_N8insG | 0.864 | 1.57 | 1.27 | 1.29 | 0.765
52 | D7_N8insGS | 0.317 | 1.01 | 0.447 | 0.102 | 0.549
53 | D7_S9del | 0.083 | -0.052 | -0.053 | -0.335 | -0.854
54 | D7del | -0.282 | -1.25 | -0.787 | -0.075 | -0.544
55 | N8A | 0.464 | 1.32 | 0.391 | -0.78 | –
56 | N8C | -1.16 | -0.567 | -0.689 | 0.702 | -1.72
57 | N8D | 0.087 | -0.765 | – | 0.485 | -0.518
58 | N8F | 0.797 | -0.575 | 0.492 | -0.87 | -1.28
59 | N8G | -1.03 | -0.882 | -0.505 | -0.497 | -1.61
60 | N8H | -0.602 | 0.218 | -0.743 | -0.492 | -1.68
61 | N8I | 0.336 | -0.345 | -1.08 | -0.206 | -0.873
62 | N8K | 0.489 | – | 0.157 | 0.619 | –

Scores with a large standard error are left out. Two further conditions of the source, in which the scores hardly spread, are not listed. Names with del lack the residues named; names with ins carry added residues between the positions named. For some of these results: The data file names ogerin without a concentration.
